Results taken from the supplement of paper PMC9588766.
Where a name gives a salt, the structure may show the parent alone. ± gives the standard deviation of the averaged measurements. The full ranking holds about 2,000 compounds; the median of “cell viability relative to DMSO control (compound alone)” is about 0.98, and the lowest 2% start at about 0.23. The list shows a part of the results.

System: PDC-DUC18828
Experiment: cell viability relative to DMSO control (compound alone) (fraction); PDC-DUC18828 is a patient-derived cholangiocarcinoma cell line; higher = less growth inhibition
Conditions: 1 µM; 72 h
Experimental: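 Selleck Bioactive library screen in the patient-derived FGFR2-G3BP2 fusion-positive ICC cell line PDC-DUC18828 (500 cells/well). Each compound was tested at 1 uM alone, in triplicate, for 72 h. Viability was read by CellTiter-Glo and normalised to plate DMSO controls.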

Row | Structure (SMILES) | cell viability
1 | Cc1nc2c([nH]1)-c1ccccc1N(C(=O)c1ccc(NC(=O)c3ccccc3-c3ccccc3)cc1)CC2 [Conivaptan HCl] | 1.08 ± 0.022
2 | Cn1ncnc1[C@H]1c2n[nH]c(=O)c3cc(F)cc(c23)N[C@@H]1c1ccc(F)cc1 | 0.5 ± 0.018
3 | Cc1cnc(Nc2ccc(OCCN3CCCC3)cc2)nc1Nc1cccc(S(=O)(=O)NC(C)(C)C)c1 | 0.857 ± 0.014
4 | O=C(Cc1ccccc1)Nc1nnc(CCSCCc2nnc(NC(=O)Cc3ccccc3)s2)s1 | 0.96 ± 0.046
5 | COc1cc(-c2ncn(/C=C\C(=O)OC(C)C)n2)cc(C(F)(F)F)c1 | 0.395 ± 0.037
6 | COc1ccc(-c2nc(N3CCOCC3)c3sc(CN(C)c4ncc(C(=O)NO)cn4)cc3n2)cn1 | 0.0525 ± 0.0074
7 | COc1ccc(Cl)c(Nc2nc3ccccc3nc2NS(=O)(=O)c2cccc(NC(=O)C(C)(C)N)c2)c1 [Pilaralisib (XL147)] | 0.858 ± 0.042
8 | CCCNC(=O)NS(=O)(=O)c1ccc(Cl)cc1 [Chlorpropamide] | 1.12 ± 0.028
9 | C[C@]12C=CC(=O)N[C@@H]1CC[C@@H]1[C@@H]2CC[C@]2(C)[C@@H](C(=O)Nc3cc(C(F)(F)F)ccc3C(F)(F)F)CC[C@@H]12 [Dutasteride] | 0.932 ± 0.011
10 | Clc1cccc(Cl)c1NC1=NCCN1 [Clonidine HCl] | 0.953 ± 0.019
11 | CO[C@H]1/C=C/O[C@@]2(C)Oc3c(C)c(O)c4c(O)c(c5c(nc6cc(C)ccn65)c4c3C2=O)NC(=O)/C(C)=C\C=C\[C@H](C)[C@H](O)[C@@H](C)[C@@H](O)[C@@H](C)[C@H](OC(C)=O)[C@@H]1C [Rifaximin] | 0.892 ± 0.04
12 | Cc1ccc([C@@H]2O[C@H](CO)[C@@H](O)[C@H](O)[C@H]2O)cc1Cc1ccc(-c2ccc(F)cc2)s1 [Canagliflozin] | 1.01 ± 0.067
13 | CC(C)(C)c1cc(C(C)(C)C)c(NC(=O)c2c[nH]c3ccccc3c2=O)cc1O [Ivacaftor (VX-770)] | 0.956 ± 0.018
14 | CC(C)NC[C@@H](C(=O)N1CCN(c2ncnc3c2[C@H](C)C[C@H]3O)CC1)c1ccc(Cl)cc1 | 1 ± 0.048
15 | COc1cccc(C=NCCN=Cc2cccc(OC)c2[O-])c1[O-].[Cl-].[Mn+3] | 0.927 ± 0.024
16 | COCC(=O)NC/C=C/c1ccc2ncnc(Nc3ccc(Oc4ccc(C)nc4)c(C)c3)c2c1 | 0.962 ± 0.043
17 | Oc1cc2c(cc1O)C(c1ccccc1)CNCC2 (stereo not given) | 0.996 ± 0.1
18 | Cn1c(=O)c2c(ncn2CC2OCCO2)n(C)c1=O [Doxofylline] | 1.01 ± 0.017
19 | C=CC(=O)Nc1cccc(Sc2nc(Nc3ccc(N4CCN(C)CC4)cc3)ncc2Cl)c1 | 0.854 ± 0.049
20 | CCCCNc1ncc(C(=O)NCc2ccc(-n3ccnc3)cc2)c(NC2CCC(O)CC2)n1 (stereo not given) | 0.813 ± 0.021
21 | CCOC(=O)[C@H]1O[C@@H]1C(=O)N[C@@H](CC(C)C)C(=O)NCCC(C)C [Aloxistatin] | 1.02 ± 0.021
22 | COc1cc(Nc2c(C#N)cnc3cc(OCCCN4CCN(C)CC4)c(OC)cc23)c(Cl)cc1Cl [Bosutinib (SKI-606)] | 0.84 ± 0.036
23 | CCC1(c2ccccc2)C(=O)NCNC1=O [Primidone] | 1.06 ± 0.032
24 | CCCCc1oc2ccc(NS(C)(=O)=O)cc2c1C(=O)c1ccc(OCCCN(CCCC)CCCC)cc1 [Dronedarone HCl] | 0.987 ± 0.037
25 | O=C(Nc1cccnc1)c1cc(-c2ccnc(F)c2)ccc1OCc1ccccc1 | 0.942 ± 0.029

Row | Structure (SMILES) | cell viability
26 | O=C1CC[C@@H](C(=O)N2CSC[C@H]2C(=O)O)N1 [Pidotimod] | 0.976 ± 0.034
27 | c1ccc(-c2ccc(C(c3ccccc3)n3ccnc3)cc2)cc1 (stereo not given) [Bifonazole] | 0.985 ± 0.018
28 | Oc1c(Cl)cc(Cl)c2cccnc12 [Chloroxine] | 0.968 ± 0.04
29 | COc1ccc(Cl)cc1NC(=O)Nc1cc(C)nc2ccccc12 | 1.01 ± 0.023
30 | CN(C)CCC(c1ccc(Br)cc1)c1ccccn1 (stereo not given) [Brompheniramine hydrogen maleate] | 0.949 ± 0.015
31 | C=CC(=O)Nc1cccc(Oc2nc(Nc3ccc(N4CCN(C)CC4)cc3)ncc2Cl)c1 | 0.652 ± 0.02
32 | C[C@@](Cc1ccc(O)c(O)c1)(NN)C(=O)O [Carbidopa] | 0.96 ± 0.035
33 | CCOc1nc2cccc(C(=O)O)c2n1Cc1ccc(-c2ccccc2-c2nnn[nH]2)cc1 [Candesartan] | 1.07 ± 0.023
34 | Nc1ncnc2c1ncn2[C@@H]1O[C@H](CO)[C@@H](O)[C@@H]1O [Vidarabine] | 0.95 ± 0.042
35 | CC1CCN(CC[C@H]2CCCN2S(=O)(=O)c2cccc(O)c2)CC1 | 1.01 ± 0.027
36 | O=C(NC(Cc1cc(=O)[nH]c2ccccc12)C(=O)O)c1ccc(Cl)cc1 (stereo not given) [Rebamipide] | 0.993 ± 0.04
37 | COc1ccc2[nH]cc(/C=C3\C(=O)Nc4ccc(NC(=O)CCN5CCCCC5)cc43)c2c1 | 0.997 ± 0.026
38 | COC(=O)/C=C/C(=O)OC [Dimethyl Fumarate] | 0.91 ± 0.024
39 | CC(C)c1cc(C(C)C)c(CC(=O)NS(=O)(=O)Oc2c(C(C)C)cccc2C(C)C)c(C(C)C)c1 [Avasimibe] | 0.899 ± 0.015
40 | O=C(NNc1nc2cc(F)ccc2n2cccc12)c1cnccn1 | 0.101 ± 0.012
41 | CN1CCN(Cc2ccc(-c3cnc4[nH]cc(-c5ccc6[nH]ccc6c5)c4c3)cc2)CC1 | 0.97 ± 0.046
42 | CCOC(=O)C1=C(C)NC(C)=C(C(=O)OC)C1c1cccc(Cl)c1Cl (stereo not given) [Felodipine] | 1.026 ± 0.0077
43 | CCOC(=O)c1ccc(NC2CCCCC2)c(N)c1 [Ferrostatin-1 (Fer-1)] | 0.98 ± 0.03
44 | O=C1c2c(O)ccc(O)c2C(=O)c2c(NCCNCCO)ccc(NCCNCCO)c21 [Mitoxantrone] | 0.243 ± 0.015
45 | O=C1c2c(O)ccc(O)c2C(=O)c2c(NCCNCCO)ccc(NCCNCCO)c21 [Mitoxantrone HCl] | 0.173 ± 0.018
46 | CC1(C)CC[C@]2(NC(=O)C(C)(F)F)CC[C@]3(C)[C@H](C(=O)C=C4[C@@]5(C)C=C(C#N)C(=O)C(C)(C)[C@@H]5CC[C@]43C)[C@@H]2C1 [Omaveloxolone (RTA-408)] | 0.0541 ± 0.0029
47 | CCCCc1ncc(/C=C(\Cc2cccs2)C(=O)O)n1Cc1ccc(C(=O)O)cc1 [Eprosartan Mesylate] | 0.95 ± 0.024
48 | CN1CCCN(C(=O)c2cccc(-c3ccc(/C=C4/C(=O)Nc5ccc(Cl)cc54)o3)c2)CC1 | 0.572 ± 0.016
49 | CCCCCCCCOc1ccccc1C(=O)Nc1ccc(C(=O)OCC[N+](C)(CC)CC)cc1 [Otilonium Bromide] | 0.901 ± 0.043
50 | CN1CCN2c3ccccc3Cc3ccccc3C2C1 (stereo not given) [Mianserin HCl] | 0.99 ± 0.02
